# Source: patent publication US10509035B2, “Antibodies, antibody drug conjugates and methods of use” (GAMAMABS PHARMA, priority 2015, dated 2019)
# Tests used:
# [1] = test system: COV434 AMHR-II transfected cell line; assay: Apoptosis induction, Annexin V-FITC / propidium iodide flow cytometry; type: cell-based; conditions: 5 μg/ml, 48 hours
# Description: The percentage of apoptotic was assessed using the Annexin V-Fluos Staining kit (Roche) according to the manufacturer's protocol. […] Carboplatin (300 μM) was used as positive control. After washes and centrifugation, the cell pellets were resuspended in the Annexin-V-Fluorescein and propidium iodide reagents. Following 10 minutes incubation at room temperature, samples were analyzed by flow cytometry on a BD Accuri™ C6 flow cytometer (BD Bioscience).
# [2] = test system: COV434 AMHR-II transfected cell line tumor xenograft; assay: Dose response in COV434 AMHR-II transfected cell line tumor xenograft in nude mice; type: in vivo; conditions: for Tumor volumes (mean ± sem): once on day 0
# Description: A COV434 AMHR-II transfected cell line were cultured as described in example 2 and implanted in female athymic nude mice (Hsd:Athymic Nude-Fox1nu, Harlan Laboratories). 10×10^6 cells (100 μl) were injected in the interscapular mammary fat pad of the mice with matrigel. Mice were allocated to different group according to their tumor volume to give homogenous mean and median tumor volume in each treatment arms. For each group, 10 mice with established growing tumors and tumors volume ranging 60 to 200 mm^3 were included in the study. […] The corresponding vehicle (PBS) was administrated on the same day. During the whole experimental period, from grafting to study termination, animals were observed every day, for physical appearance, behavior and clinical changes. Tumor volume was evaluated by measuring tumor diameters three times a week and their size was calculated as mm^3=0.5× (tumor length, mm)×(tumor width, mm)^2 with the length and the width are the longest and the shortest diameters respectively.
# [3] = test system: negative HCT116 cancer cell line; assay: In vitro cell proliferation / cytotoxic assay (CellTiter Blue); type: cell-based; conditions: Negative cell (no-expression), 72 hours; ND: could not be calculated; read-out: IC50 (nM) ± S.E.M
# Description: (§1) The effects on cells viability was measured using resazurin dye reduction assay (CellTiter Blue, Promega). Cells were plated at 8000 cells per well onto 96-well plate (BD Falcon). […] Plates were incubated at 37° C. under 5% CO2 for a further 72 hours. […] CellTiter Blue reagent that enable quantification of viable cells by measurement of metabolic activity was added and plates were read with a fluorometer after a minimum of 2 hours with excitation and emission wavelengths of 544 nm and 590 nm respectively. Anti-proliferative effects were evaluated on COV434 AMHR-II transfected cell line (˜20000 receptors), COV434 WT (˜2000 receptors) and negative cell (no-expression). Data were analyzed using GraphPad Prism and IC50 values, defined as the concentration of antibodies that results in 50% reduction of viability compared with untreated cells, were determined using a 4-parameter non-linear regression model.
# [4] = test system: COV434 WT cell line; assay: as above; type: cell-based; conditions: 72 hours, ND: could not be calculated
# Description: as §1
molecule,measurement,setting,value
GM103 (conjugate) heavy: QVRLVQSGAEVKKPGASVKVSCKASGYTFTSYHIHWVRQAPGQRLEWMGWIYPGDDSTKYSQKFQGRVTITRDTSASTAYMELSSLRSEDTAVYYCTRGDRFAYWGQGTLVTVSS[human IgG1 constant region left out here] light: DIQMTQSPSTLSASVGDRVTITCRASSSVRYIAWYQQKPGKAPKLLTYPTSSLKSGVPSRFSGSGSGTEFTLTISSLQPDDFATYYCLQWSSYPWTFGGGTKVEIKRTVAAPSVFIFPPSDEQLKSGTASVVCLLNNFYPREAKVQWKVDNALQSGNSQESVTEQDSKDSTYSLSSTLTLSKADYEKHKVYACEVTHQGLSSPVTKSFNRGEC,apoptosis induction,[1],effective to induce apoptosis
same,Tumor volumes (mean ± sem),"[2]; 1 mg/kg i.v., Day 0",86 ± 10 mm^3
same,Tumor volumes (mean ± sem),"[2]; 1 mg/kg i.v., Day 2",101 ± 15 mm^3
same,Tumor volumes (mean ± sem),"[2]; 1 mg/kg i.v., Day 4",116 ± 24 mm^3
same,Tumor volumes (mean ± sem),"[2]; 1 mg/kg i.v., Day 7",129 ± 43 mm^3
same,Tumor volumes (mean ± sem),"[2]; 1 mg/kg i.v., Day 9",142 ± 56 mm^3
same,Tumor volumes (mean ± sem),"[2]; 1 mg/kg i.v., Day 11",159 ± 72 mm^3
same,Tumor volumes (mean ± sem),"[2]; 1 mg/kg i.v., Day 14",199 ± 86 mm^3
same,Tumor volumes (mean ± sem),"[2]; 1 mg/kg i.v., Day 16",322 ± 146 mm^3
same,Tumor volumes (mean ± sem),"[2]; 1 mg/kg i.v., Day 21",647 ± 309 mm^3
same,Tumor volumes (mean ± sem),"[2]; 5 mg/kg i.v., Day 0",83 ± 7 mm^3
same,Tumor volumes (mean ± sem),"[2]; 5 mg/kg i.v., Day 2",83 ± 9 mm^3
same,Tumor volumes (mean ± sem),"[2]; 5 mg/kg i.v., Day 4",46 ± 8 mm^3
same,Tumor volumes (mean ± sem),"[2]; 5 mg/kg i.v., Day 7",17 ± 4 mm^3
same,Tumor volumes (mean ± sem),"[2]; 5 mg/kg i.v., Day 11",1 ± 0 mm^3
same,Tumor volumes (mean ± sem),"[2]; 5 mg/kg i.v., Day 14",0 ± 0 mm^3
same,Tumor volumes (mean ± sem),"[2]; 5 mg/kg i.v., Day 16",0 ± 0 mm^3
same,Tumor volumes (mean ± sem),"[2]; 5 mg/kg i.v., Day 21",0 ± 0 mm^3
same,Tumor volumes (mean ± sem),"[2]; 5 mg/kg i.v., Day 23",0 ± 0 mm^3
same,Tumor volumes (mean ± sem),"[2]; 5 mg/kg i.v., Day 25",0 ± 0 mm^3
same,Tumor volumes (mean ± sem),"[2]; 5 mg/kg i.v., Day 28",0 ± 0 mm^3
same,Tumor volumes (mean ± sem),"[2]; 5 mg/kg i.v., Day 32",0 ± 0 mm^3
same,Tumor volumes (mean ± sem),"[2]; 5 mg/kg i.v., Day 35",0 ± 0 mm^3
same,Tumor volumes (mean ± sem),"[2]; 5 mg/kg i.v., Day 39",0 ± 0 mm^3
same,Tumor volumes (mean ± sem),"[2]; 5 mg/kg i.v., Day 42",0 ± 0 mm^3
same,Tumor volumes (mean ± sem),"[2]; 5 mg/kg i.v., Day 56",8 ± 2 mm^3
same,Tumor volumes (mean ± sem),"[2]; 5 mg/kg i.v., Day 63",14 ± 5 mm^3
same,Tumor volumes (mean ± sem),"[2]; 5 mg/kg i.v., Day 70",52 ± 26 mm^3
same,Tumor volumes (mean ± sem),"[2]; 10 mg/kg i.v., Day 0",84 ± 8 mm^3
same,Tumor volumes (mean ± sem),"[2]; 10 mg/kg i.v., Day 2",66 ± 9 mm^3
same,Tumor volumes (mean ± sem),"[2]; 10 mg/kg i.v., Day 4",19 ± 4 mm^3
same,Tumor volumes (mean ± sem),"[2]; 10 mg/kg i.v., Day 7",6.78 ± 3^ mm^3
same,Tumor volumes (mean ± sem),"[2]; 10 mg/kg i.v., Day 9",0.5 ± 0 mm^3
same,Tumor volumes (mean ± sem),"[2]; 10 mg/kg i.v., Day 11",0 ± 0 mm^3
same,Tumor volumes (mean ± sem),"[2]; 10 mg/kg i.v., Day 14",0 ± 0 mm^3
same,Tumor volumes (mean ± sem),"[2]; 10 mg/kg i.v., Day 16",0 ± 0 mm^3
same,Tumor volumes (mean ± sem),"[2]; 10 mg/kg i.v., Day 21",0 ± 0 mm^3
same,Tumor volumes (mean ± sem),"[2]; 10 mg/kg i.v., Day 23",0 ± 0 mm^3
same,Tumor volumes (mean ± sem),"[2]; 10 mg/kg i.v., Day 25",0 ± 0 mm^3
same,Tumor volumes (mean ± sem),"[2]; 10 mg/kg i.v., Day 28",0 ± 0 mm^3
same,Tumor volumes (mean ± sem),"[2]; 10 mg/kg i.v., Day 32",0 ± 0 mm^3
same,Tumor volumes (mean ± sem),"[2]; 10 mg/kg i.v., Day 35",2 ± 1 mm^3
same,Tumor volumes (mean ± sem),"[2]; 10 mg/kg i.v., Day 39",2 ± 1 mm^3
same,Tumor volumes (mean ± sem),"[2]; 10 mg/kg i.v., Day 42",2 ± 1 mm^3
same,Tumor volumes (mean ± sem),"[2]; 10 mg/kg i.v., Day 70",2 ± 1 mm^3
same,inhibition of tumor growth compared to the vehicle control group,"[2]; once intravenously at 10, 5 or 1 mg/kg",dose dependent inhibition of tumor growth
same,IC50,[3],> 1000 nM
same,IC50,"[4]; COV434 WT (~2000 receptors), read-out: IC50 (nM) ± S.E.M",208 nM
same,Minimum Viability (%),[4]; COV434 WT,12%
